This is an account of results in the supplement of paper PMC11417369.

± gives the standard deviation of the averaged measurements. Some of the results follow.

The assay concerns PfAP2-G AP2 domain (GST-tagged). The assay is described as follows: gcPBM binding intensity (ln(normalized median fluorescence intensity)); higher = stronger DNA binding. A digest of the protocol: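 GST-fused DNA-binding domains of P. falciparum, expressed in E. coli, were applied at about 25 μg on average for 1 h to an Agilent 4 × 180k array of primer-extended double-stranded 36-bp intergenic genomic probes and negative controls. Binding intensity is the highest Masliner-normalised natural-log median intensity across replicate spots of either probe orientation, measured with Alexa488 anti-GST antibody and a 488 nm scan.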
Regarding “TATCATATAAATACATGTACATATTTGGAAAATAAT [XGTACX_site5373]”, the “gcPBM binding intensity (ln)” value stood at 11.2 ± 0.73.

Turning to “ATATATATATTAACAATACACACGTGTATACCTTAT [CACACA_site2217]”, the “gcPBM binding intensity (ln)” value turned out to be 10.38 ± 0.078.

For “TAAAAAAAAATAAATACATGCATATAATACATTATA [TGCATGCA_site518]”, the “gcPBM binding intensity (ln)” value amounted to 9.48 ± 0.14. Consider “TAATGAGGAAAAAGTGTGTTAAGATTTTATAATTTA [GTGCAC_negctrl_site608]”, for which the “gcPBM binding intensity (ln)” value amounted to 9.71 ± 0.085. As for “CTTAGAGTATTTAAATGTACACGTTTGTATATGTAT [XGTACX_site1767]”, the “gcPBM binding intensity (ln)” value is 11.3 ± 0.79. In the case of “TAGTAAATAACAAAAGGAAAAATTAATGAGGCAAAA [TGCATGCA_negctrl_site526]” it was 9.945 ± 0.021. As for “CATATACACGAACACACACACATATATATATATATA [CACACA_site4437]”, the figure is 10.5 ± 0.68; as for “CATCATAGCATTCCTCGTACAAATATAAACATATCA [XGTACX_site2711]”, 10.8 ± 0.59. Consider “ATGTTTTGTAAAATGATTAAATATTAAGATTCAATA [CACACA_negctrl_site1743]”, for which the “gcPBM binding intensity (ln)” value is 9.645 ± 0.021. With “ATAAATAAATACATATGTACATATATATATATATAT [XGTACX_site7145]”, the “gcPBM binding intensity (ln)” value is 11.1 ± 0.57. “AAATTATATCCCCTTTGTACTTACAGATCTTTATAC [XGTACX_site8163]”: the “gcPBM binding intensity (ln)” value came to 11.2 ± 0.76. Regarding “TCAGTTAATGTATATGTACACACGGGGTGTATATAT [CACACA_site9103]”, the “gcPBM binding intensity (ln)” value stood at 11.2 ± 0.73. Regarding “ATATATATATTAAGGGGTACGTAAAAAATTGGGAAG [XGTACX_site7322]”, the “gcPBM binding intensity (ln)” value is 11.5 ± 1. Take “CCCAATAATTAAACAACACACATATATATATGTAAT [CACACA_site3084]”: the “gcPBM binding intensity (ln)” value is 9.795 ± 0.007.

For “TACATATTTTTTATGTGTACATATTTTTTATGTGTG [XGTACX_site444]”, the “gcPBM binding intensity (ln)” value is 11.5 ± 0.68. In the case of “TTCTTTTTTCTTTATGGTACGTGTAATATATATCAA [XGTACX_site7960]” it was 11.2 ± 0.69; in that of “CTTTATTTTTTATACACACACAATATGTATAAATAT [CACACA_site7638]”, 10.2 ± 0.21. Consider “ATAAAATACAGATAAACACACATATAAACACCCATA [CACACA_site5381]”, for which the “gcPBM binding intensity (ln)” value is 10.4 ± 0.33. Regarding “TTTTTTTTTCTTTCTCTTTAAATATTAATTAAAAAA [GTGCAC_negctrl_site90]”, the “gcPBM binding intensity (ln)” value was 9.85 ± 0.27. Turning to “TTTATAAAATTATTTGCATGTAACAATTATAAATTG [TGCATGCA_site1026]”, the “gcPBM binding intensity (ln)” value came to 9.97 ± 0.042.

For “TAACTATCATGTATTACACACAATATTTATTATAGA [CACACA_site7301]”, the “gcPBM binding intensity (ln)” value worked out at 9.94 ± 0.16. With “AATGTGAAATATAAATGTACATAAATATATATATAT [XGTACX_site8710]”, the “gcPBM binding intensity (ln)” value worked out at 11.2 ± 0.45.

Regarding “AAAATATAAATATATTGTACTGTTATATAATAAAAT [XGTACX_site2132]”, the “gcPBM binding intensity (ln)” value stood at 10.5 ± 0.38. With “AGAGGAGTAAAACAAAACAAAGAGAAATAAACACAC [XGTACX_negctrl_site386]”, the “gcPBM binding intensity (ln)” value stood at 10.8 ± 0.62. As for “AATTAATAAATATTATATGTTAATATTTTTTTTGTT [CACACA_negctrl_site1692]”, the “gcPBM binding intensity (ln)” value turned out to be 9.48 ± 0.11.

As to “ACTTAATATCGGTACACACACAAGATAAGAATTATG [CACACA_site894]”, the “gcPBM binding intensity (ln)” value stood at 11.3 ± 0.75. Regarding “AAAAAATATAATAATTGTACACATGCACACACAAAT [XGTACX_site1563]”, the “gcPBM binding intensity (ln)” value came out at 11.4 ± 0.76. For the sequence “TTTCATATCTTGTCAAGTACATATTTTTATTTTCTT [XGTACX_site2160]”, the “gcPBM binding intensity (ln)” value worked out at 11 ± 0.58. Regarding “AATAACACTATTTAACGTACAAAAAAAAAAAAGAAA [XGTACX_site3721]”, the “gcPBM binding intensity (ln)” value was determined as 11.1 ± 0.84.

“TTTTTATAAAAATGAACACACACATATATATATATA [CACACA_site9160]”: the “gcPBM binding intensity (ln)” value turned out to be 10.2 ± 0.49. For “TATAATAAAATATTTTGTACGTATATTTTAATATTT [XGTACX_site2582]”, the “gcPBM binding intensity (ln)” value amounted to 11.2 ± 0.72. “AAAAAAAATAAAAATAGTACCCAAAAAATTATGAAT [XGTACX_site6641]”: the “gcPBM binding intensity (ln)” value was 11.1 ± 0.73. Take “ATACTAAAAATGAATGTACACATATATATATATATA [TGCATGCA_negctrl_site209]”: the “gcPBM binding intensity (ln)” value came out at 11.3 ± 0.77. Take “ATATATCTTTATATAGTGCATTAAATATGTTGTAAT [GTGCAC_site9953]”: the “gcPBM binding intensity (ln)” value was 9.82 ± 0.13.

Regarding “TATCATACAATATTCACACAAATAAATTGACATATT [CACACA_site5891]”, the “gcPBM binding intensity (ln)” value stood at 9.64 ± 0.014.

With “ACAAAAAAAAAAAAAAAAAGAAGAATATATCTATAT [CACACA_negctrl_site759]”, the “gcPBM binding intensity (ln)” value came out at 9.33 ± 0.21. With “AAAAAGGAAATAATAACACACATTAGTAATTATAAA [CACACA_site7573]”, the “gcPBM binding intensity (ln)” value amounted to 9.715 ± 0.064.

Turning to “TATTAAAAAAATATTTGTACTTAAAATTTATTATAT [XGTACX_site1467]”, the “gcPBM binding intensity (ln)” value amounted to 11 ± 0.67. With “TATTTTCTTTAATTAATTATTGGTCTGAATGGGGTT [CACACA_negctrl_site418]”, the “gcPBM binding intensity (ln)” value was 10.2 ± 0.38. On to “CACAGACACGGACACACACACACAAAAAAAAAAAGA [CACACA_site4436]”, for which the “gcPBM binding intensity (ln)” value amounted to 11.4 ± 1.1. Turning to “TTTATTGATAATATATATATATATATATATATATAT [GTGCAC_negctrl_site552]”, the “gcPBM binding intensity (ln)” value is 9.88 ± 0.64. For “TCATATGTTAAACACACACACACACCGAAAAAAACA [CACACA_site9067]”, the “gcPBM binding intensity (ln)” value came to 10.2 ± 0.3.

For the sequence “AAAAAATTAAAAAAAAAAAAATCATGAAAAAAACAA [CACACA_negctrl_site1673]”, the “gcPBM binding intensity (ln)” value came to 9.56 ± 0.014. In the case of “AATATCTTAGTGGATACACACATATAAATGGGTATT [CACACA_site4426]” it was 10.3 ± 0.15.

On to “TAGAAATAAGAAAAATGTACATATAATATTGAAAGT [XGTACX_site3043]”, for which the “gcPBM binding intensity (ln)” value came out at 11.2 ± 0.57.

“TATATATATATAAGAAGTACAGAAAATTAGAAAAAA [XGTACX_site8773]”: the “gcPBM binding intensity (ln)” value was found to be 11.7 ± 1.1. As to “TTTTACGTAATATTTATACACACGAACCTTATTAAT [CACACA_site2300]”, the “gcPBM binding intensity (ln)” value came out at 10.3 ± 0.17. Consider “CCTAAATAAATGGACACACACATATATATATATATA [CACACA_site1439]”, for which the “gcPBM binding intensity (ln)” value came out at 10.9 ± 0.65. Take “CTTATATTAAGTATTACACACATATATATAAATGCA [CACACA_site4581]”: the “gcPBM binding intensity (ln)” value came to 10 ± 0.18. In the case of “AGTAGTCTGGAGAAAAGTACATAGTATCTGGTAGCT [XGTACX_site2027]” it was 11.2 ± 0.7; in that of “AGTCTATAGTAATTTACACACAAAAAAATATCAGGA [CACACA_site7620]”, 10.04 ± 0.049. Regarding “GGCATATATACATATGGTACACATTTATTAATACCG [XGTACX_site2710]”, the “gcPBM binding intensity (ln)” value came out at 11.1 ± 0.81. Turning to “CACATACATATATATACACACAAATATATATACGCA [CACACA_site791]”, the “gcPBM binding intensity (ln)” value was 10.1 ± 0.22. In the case of “CAGCATGGTATACCTATAAAATATATATACTAACAT [TGCATGCA_negctrl_site51]” it was 10.2 ± 0.23; in that of “ATGTTACACAGACACACACACATAAAAAAACAAAAA [CACACA_site7516]”, 10.3 ± 0.43.
